Assay results from the supplement of paper PMC11417369.
± gives the standard deviation of the averaged measurements. The list shows a part of the results.

Test system: PfAP2-I AP2 domain 3 (GST-tagged)
Test: gcPBM binding intensity (ln(normalized median fluorescence intensity)); higher = stronger DNA binding
In short: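 An Agilent 4 × 180k array of primer-extended double-stranded 36-bp intergenic genomic probes, with negative controls, was incubated for 1 h with GST-tagged P. falciparum DNA-binding domains expressed in E. coli. Alexa488 anti-GST antibody detected bound protein, scanned at 488 nm. Binding intensity is the highest Masliner-normalised natural-log median intensity across replicate spots of either probe orientation.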

| Sequence | gcPBM binding intensity (ln) |
| --- | --- |
| CCCGTAAATACAAAAAGTACAAAAGTTCATCTTATA [XGTACX_site1154] | 7.93 ± 0.99 |
| ATATTATGTGATTGTGCACACTGGAGATTTTTTTTA [CACACA_site1453] | 10.9 ± 0.17 |
| TTAATATTGTATCCAAGTACACAAATTATTATATTT [XGTACX_site8067] | 7.76 ± 0.24 |
| ATGTAACACATATTTGGTACAGATAGATAAAAGTAT [XGTACX_site8291] | 8.14 ± 0.66 |
| TTTTTAAATAACCTATATATTATTATGAAACATAAA [CACACA_negctrl_site916] | 7.45 ± 0.33 |
| GTATAATATATTTATAGTACATAATTATTTATAAAT [XGTACX_site1826] | 7.74 ± 0.4 |
| TATATATATATATTCACACATAAAAATAAAATAAAA [CACACA_site4774] | 9.2 ± 0.13 |
| ATATATATATATGTGTGTACTTATTTATTTATTTGT [XGTACX_site549] | 9.56 ± 0.38 |
| TAATAAATCCTATATAGTACATATATGCAAGTATGT [XGTACX_site3955] | 10.3 ± 0.29 |
| TTTTCTTAATATTTATGTATATATATAATATGATAT [TGCATGCA_negctrl_site572] | 7.57 ± 0.52 |
| TTATTTGTTTAATATGCATGCTAAAAGGGTTGATGT [TGCATGCA_site581] | 8.24 ± 0.51 |
| ATTTTACATATTTGCACACATATATTTATATACATA [CACACA_site854] | 10 ± 0.26 |
| AATATAAAAATGCACACACACAAAAAAAAAAAAAAA [CACACA_site6546] | 9.03 ± 0.16 |
| GAGTAAAACAAATATACACACCATAAAGTTATAAAA [CACACA_site5008] | 7.79 ± 0.61 |
| AATTTAAATTCATCACGTACATACGTGAATATACAC [XGTACX_site5220] | 8.05 ± 0.37 |
| CATAAAAATGTATCAAGTACACATTTATTTATCCAT [XGTACX_site152] | 7.7 ± 0.46 |
| TACAGATAAAAGTACACACACACACCGATATATATA [CACACA_site4675] | 8.31 ± 0.64 |
| GTATAACACAAGTGAAGTACAGGGGTAAACATTTAT [XGTACX_site3203] | 8.1 ± 0.66 |
| TTAAAATAAAGAGCAGTGCGCATATTTTGTTATTAT [GTGCAC_site9753] | 8.24 ± 0.63 |
| ATAAAAAAATATGTAAACATATATATGTATTTATGT [CACACA_negctrl_site1517] | 7.54 ± 0.5 |
| TTTTTTTTTAAAGAAAATAAAAATATGTACTTGACA [CACACA_negctrl_site1113] | 7.61 ± 0.31 |
| AAACAATTTTTATTTTGTACATAACAATATATTTAT [XGTACX_site1375] | 7.67 ± 0.35 |
| TTTTTATATTTTATTAGTACTTATTATATATATAAT [XGTACX_site4900] | 7.82 ± 0.52 |

| Sequence | gcPBM binding intensity (ln) |
| --- | --- |
| AAATACATATATACATGTACATAAATATATATATAT [XGTACX_site5367] | 9.08 ± 0.14 |
| ATAGATATACATATCACACATATATATATATATATA [CACACA_site4985] | 9.19 ± 0.65 |
| TAAGGTAGTTCTGTATCACACACATATATATATATA [CACACA_site8693] | 9.46 ± 0.57 |
| AATCCATTCTATTTTTTACACACGTATGTAAATATT [CACACA_site8860] | 7.9 ± 0.69 |
| TGAGAAAGCGCATATTGTACTATATATTTTAACCAC [XGTACX_site4098] | 8.06 ± 0.52 |
| GAAAATAATGTTACATGTACGAATATGTAACTATTG [XGTACX_site6833] | 7.68 ± 0.5 |
| AATATATATGGACATGCATGGACATAATAATCTATT [TGCATGCA_site838] | 7.59 ± 0.61 |
| GATATACAATTTAAGTGTACTATAATAAAATATATA [XGTACX_site3013] | 7.79 ± 0.071 |
| ATAAAAAAATATAAATGTACATATATATATATATAT [XGTACX_site5620] | 9.52 ± 0.62 |
| ATTTATCTATATATATGTACATATTATTTTTGTGGT [XGTACX_site7390] | 7.92 ± 0.49 |
| TATATTAATTCGTTTTGTACACACATAATGAATAAT [XGTACX_site4618] | 7.79 ± 0.26 |
| ATTAAATAAAATCATGCACACAATATATATTTTAAG [CACACA_site2495] | 8.37 ± 0.25 |
| ATAAGCATCTTTTGTGTGCACATAACAAAAAAAAAA | 9.95 ± 0.057 |
| TTTAAAATATTGTATTGTACGCAATAAAAAATACCA [XGTACX_site182] | 8.13 ± 0.21 |
| TCTAACATATCTTTAATACACACTTAAAAAAGTACT [CACACA_site652] | 7.88 ± 0.39 |
| TACACCATGATACATACACACAGACATATACTCATT [CACACA_site4708] | 8.04 ± 0.43 |
| TCCAAATGTTTGCGTTGTACTCTTTTTTTAAAACTA [XGTACX_site5148] | 7.95 ± 0.52 |
| ATAACCACATAAAATATAATTATATATATATATATA [CACACA_negctrl_site603] | 9.36 ± 0.36 |
| CCTGAAATTTTATTATGTACATATTATAAAATGATT [XGTACX_site1434] | 7.75 ± 0.31 |
| TGGCACTAAAAAAATAAACACACAGATTTATATAAT [CACACA_site8386] | 7.62 ± 0.6 |
| ATTCCTCCCATGGAATGTACTCATCAAATAAATAAA [XGTACX_site6543] | 7.72 ± 0.39 |
| TTTATTAATAAGAAATGTACACAAAATTATTTCCAA [XGTACX_site5970] | 7.75 ± 0.49 |
| ATAGAGTCATTCCTCACACACACGCTATATGAATAG [CACACA_site2047] | 7.95 ± 0.79 |

| Sequence | gcPBM binding intensity (ln) |
| --- | --- |
| TAATTAAAATTAAGAAGTACATTTTACTTTTAATGC [XGTACX_site5120] | 7.61 ± 0.63 |
| AAAAAATACTTATAAAGTACTAATATATATAAGCAG [XGTACX_site743] | 7.94 ± 0.41 |
| AATACAAACCAAAAAGTAAATACATCAACATGATCA [CACACA_negctrl_site140] | 7.42 ± 0.48 |
| GAGAAATTTATACATACACACATATATATATTATAT [CACACA_site4038] | 7.78 ± 0.52 |
| TATCATGTTTTTATGGTGCATGAAATCACACATTGA | 9.54 ± 0.33 |
| TATTTTTTCCTTTGTTTTTTAAACTATCTTAACTAA [XGTACX_negctrl_site519] | 7.8 ± 0.49 |
| AAATAAATAAAAAACACACACAAATAAATAAATATA [CACACA_site2249] | 7.61 ± 0.55 |
| TAAAAAATGATAGAAGTGCATAAAATAATATATATA [GTGCAC_site9904] | 10.4 ± 0.13 |
| ATATAATAAATATATTGTACATATGAATCTACTAAA [XGTACX_site7610] | 7.61 ± 0.54 |
| AAAAAATTCCTATATACACACACGCACATATTTATA [CACACA_site6192] | 7.89 ± 0.66 |
| TTTCTATTTCCTTCACATCTTTTCATCTTTTTTTTT [CACACA_negctrl_site1110] | 7.94 ± 0.54 |
| GACTTGAAGAAATAAGTGCAGAGTTTTATTTTAATT [GTGCAC_site9912] | 8.44 ± 0.34 |
| AAGGAATATATATACATACACACATATATATATATA [CACACA_site1665] | 9.24 ± 0.42 |
| AGTGGATGAGGACATACACACACACCGAAGTTGATA [CACACA_site9132] | 7.63 ± 0.54 |
| AAAAAAAAAAAAAAAAAAAAAAATATATATATATAT [XGTACX_negctrl_site33] | 9.575 ± 0.064 |
| AAATTTTCATGTGTTGCATGCTGAACTATTTTATCA [TGCATGCA_site856] | 7.58 ± 0.81 |
| AATAAAAAGGAAAGGTATATGTGTGCCCTTGTGTTA [TGCATGCA_negctrl_site83] | 8.35 ± 0.47 |
| GAAATTTTTAATGTGGTGCACAGGAAATTTTTTCTT | 10.66 ± 0.064 |
| TATTTCCTTTTTCTTGTTATTCATGAGAAAAAATGA [CACACA_negctrl_site482] | 7.67 ± 0.52 |
| AAAATAATAATAGGCACACATATATATATATATATA [CACACA_site2058] | 9.36 ± 0.32 |
| AAAAAAAAAAAAACTACACACATACAAATATTTATA [CACACA_site5430] | 7.77 ± 0.34 |
| TACATACATACAGGAGTGCATATATCACAATTATTA | 10.1 ± 0.16 |
| AGTATACTCGGACACACACACACATATATATATATA [CACACA_site5031] | 9.395 ± 0.078 |

| Sequence | gcPBM binding intensity (ln) |
| --- | --- |
| TTATATATATCTAATTGTACAATATTATGTTCATTA [XGTACX_site7479] | 7.67 ± 0.49 |
| ATATATAATATAATATGTACATAAAATTTTAACATT [XGTACX_site5773] | 7.83 ± 0.33 |
| ATTTATTAAATAAAAAGTACAAAATAAGAAAGAAGA [XGTACX_site6935] | 8.24 ± 0.54 |
| AAAAAAACAGTGAATGCACACATTTAAGATCCATAT [CACACA_site3148] | 9.51 ± 0.085 |
| TATATTCCCTTAATCACACATAAATAAAAAAAAATA [CACACA_site6094] | 7.66 ± 0.3 |
| CAAATATGTCTTATTCGTACACATATATATATATAT [XGTACX_site8817] | 9.55 ± 0.28 |
| TTTCTTTATAAATTAATATTCACAACACAAAATATA [CACACA_negctrl_site450] | 7.72 ± 0.4 |
| AAGAAAATAAAAAATAAGCATAATATGATATGATAT [TGCATGCA_negctrl_site196] | 7.64 ± 0.52 |
| GTGCATATAAGGAAGTGTACGAAAAAAAATATTCCA [XGTACX_site8490] | 9.88 ± 0.56 |
| AAAAATTTGGCATACACACACACACCGACACAGACA [CACACA_site4489] | 8.29 ± 0.22 |
| ATGTATGTTTATTACTATTTTGAGAATAGACTATAA [CACACA_negctrl_site1366] | 7.52 ± 0.4 |
| AGTTATATGATTAATACACACAACAAATGTTTCTTC [CACACA_site1092] | 7.78 ± 0.57 |
| AATTTGGTGTGTGTAAAAGTATGTGTCTATATTTAT [GTGCAC_negctrl_site166] | 8.36 ± 0.38 |
| ACGACTAAATATATGAGTACATATATATATAAATAT [XGTACX_site7522] | 7.51 ± 0.42 |
| AAGAATCATATTTAAACACACATACAGATATATATA [CACACA_site5787] | 7.79 ± 0.59 |
| TCTAAAATAAATAATGCATGTTAAAAAAAAATATAT [TGCATGCA_site562] | 8.09 ± 0.75 |
| TGCAAAAAATTCCACACACACACACCCATATAAATA [CACACA_site1230] | 8.02 ± 0.2 |
| AATTAAAATATATATATACACACGTAATTATATATA [CACACA_site3819] | 7.38 ± 0.43 |
| ATTGTGGCAATATATTGTACATGTAATATAAATATA [XGTACX_site5415] | 8.1 ± 0.31 |
| AAAAAAAAAAAAAAGAGTACTTTTTTCTCATTACTA [XGTACX_site8353] | 7.99 ± 0.54 |
